Hit rate of the full screen: of about 420,000 compounds, about 50,000 (12%) were called active. Inconclusive means that the source gave no clear call. Such entries were picked first, then a sample of the others. Calls come from the whole dose curve; as a rule, active = well fitted inhibition curve with a large enough effect; inconclusive = small, poorly fitted or top-dose-only effect; inactive = flat fitted curve, though single readings scatter. No potency is given beside an inconclusive call; the fits are too rough.
Experiment: qHTS for Inhibitors of human tyrosyl-DNA phosphodiesterase 1 (TDP1): qHTS in cells in presence of CPT; note: nearly all actives have a fitted effect of over 55% in size
Conditions: chicken DT40 Tdp1-/-;hTDP1 cells + 20 nM CPT, ATP luminescence, 48 h; activity change, negative = growth inhibition: at 46.2 µM (top of the series) unless noted
Outline: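 Cell growth measured by CellTiter-Glo luminescence after a minimum 48 h, 37 C compound exposure with 20 nM CPT in Tdp1-knockout DT40 cells stably expressing hTDP1, seeded 400/well; qHTS titration format.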
In the case of `O=C(Cc1n[nH]c(=O)c2ccccc12)OCC(=O)c1ccc2c(c1)OCCO2`, the Potency is reported as active: 0.92 µM.
In the case of `Cc1cccc(OCCn2c(=O)sc3ccccc32)c1`, the Potency is reported as inconclusive [inhibitor, single point].
For `O=C(Nc1ccc(Br)cn1)c1cccc2ccccc12`, the Potency was active: 2.06 µM.
For `CCC(=O)c1ccc(N2CCCCCC2)c(F)c1`, the “activity change, negative = growth inhibition” value was inactive: -26%.
In the case of `CC1(Oc2ccccc2)CCN(Cc2csc3ccccc23)C1` (stereo not drawn), the Potency is reported as inconclusive [inhibitor, single point].
For `COC(=O)Cc1ccc(NC(=S)NCc2ccccc2Cl)cc1`, the Potency was inconclusive [inhibitor, partial curve, poor fit].
In the case of `CC1=C(C(=O)OCC2CCCO2)C(c2ccccc2OC(C)C)C2=C(CC(c3ccco3)CC2=O)N1` (stereo not drawn), the “activity change, negative = growth inhibition” value is reported as inactive: -30%.
With `Cc1nc2ncnn2c(C)c1Cc1cccc(C(F)(F)F)c1` the activity change, negative = growth inhibition was inconclusive: -30.5% [inhibitor].
With `Cc1ccc(NC(=O)CSc2nnc(COc3ccccc3F)n2N)cc1S(=O)(=O)N1CCOCC1` the Potency was inconclusive [inhibitor, partial curve].
With `CCC(=O)N1CCc2cc(S(=O)(=O)NC(C(=O)Nc3ccc(C(C)=O)cc3)C(C)C)ccc21` (stereo not drawn) the Potency was inconclusive [inhibitor, partial curve, poor fit].
In the case of `CCCn1c(SCC(=O)c2cc(C)n(-c3cc(C)on3)c2C)n[nH]c1=O`, the Potency is reported as inconclusive [inhibitor, single point].
With `CC(=O)ON(C(C)=O)c1ccc(/C=C2\C=Cc3ccccc32)cc1` the Potency was inconclusive [inhibitor, single point].
With `C=CCn1c(C)cc(/C([O-])=C(/C(=S)Nc2ccc(OC(F)F)cc2)[n+]2ccc(N(C)C)cc2)c1C` the Potency was active: 25.9 µM.
In the case of `COc1ccc(N2CCN(S(=O)(=O)CCNC(=O)Cc3ccc([N+](=O)[O-])cc3)CC2)cc1`, the “activity change, negative = growth inhibition” value is reported as inactive: -23.8%.
In the case of `COc1ccc(S(=O)(=O)N2CCCCC2)cc1NC(=O)c1ccccc1`, the “activity change, negative = growth inhibition” value is reported as inactive: 6.56%.
For `Cn1c(=O)[nH]c(=O)c2c1nc(N(CCO)Cc1ccccc1)n2CCCc1ccccc1`, the Potency was active: 25.9 µM.
With `COc1cccc(CNC(=O)CCC2CCCN(C(=O)c3cccnc3SC)C2)c1` (stereo not drawn) the Potency was inconclusive [inhibitor, single point].
In the case of `COc1ccc(/C=C/C(=O)Nc2cccnc2)cc1OC`, the “activity change, negative = growth inhibition” value is reported as inactive: 16.1%.
In the case of `O=C(Nc1ccc(-c2cscn2)cc1)C1CCCN(Cc2ccccc2)C1` (stereo not drawn), the Potency is reported as inconclusive [inhibitor, single point].
For `Cc1cc(C)cc(OCC(=O)Nc2ccc(-c3nc4ccccc4o3)cc2)c1`, the activity change, negative = growth inhibition was inconclusive: -34.5% [inhibitor].
With `Cc1cc(C)c2c(CC(=O)N(Cc3ccccc3)C3CCS(=O)(=O)C3)coc2c1` (stereo not drawn) the Potency was inconclusive [inhibitor, single point].
In the case of `CC1=CC(C)(C)N(C(=O)CSc2nccn2C)c2cc(C)ccc21`, the Potency is reported as inconclusive [inhibitor, partial curve].
For `CC(=O)OCc1c(F)c(F)c(-n2nc(C)cc2C)c(F)c1F`, the “activity change, negative = growth inhibition” value was inactive: -22.5%.
In the case of `CCSC1=C(C#N)C(c2ccccc2Cl)C(C(=O)c2cccs2)C(O)(C(F)(F)F)N1` (stereo not drawn), the Potency is reported as inconclusive [inhibitor, single point].
With `CCCC1(c2ccccc2)NC(=O)N(C/C=C/Cl)C1=O` (stereo not drawn) the Potency was inconclusive [inhibitor, single point].
With `Cc1ccc2nc3c(cc(C(=O)NC4CCCC4)c(=N)n3C3CCCCC3)c(=O)n2c1` the Potency was inconclusive [inhibitor, single point].
For `Nc1c(-c2ccc(Cl)cc2)cnn1-c1ccccc1`, the “activity change, negative = growth inhibition” value was inactive: -29%.
For `Clc1cccc(-c2nc3c4ccccc4ccn3c2CC2CCCCC2)c1`, the Potency was inconclusive [inhibitor, single point].
For `O=C(O)c1ccc(NC(=S)NC(=O)c2cccc(COc3ccccc3)c2)cc1`, the “activity change, negative = growth inhibition” value was inactive: -26.4%.
With `CCOC(=O)c1c(-c2ccccc2)oc2ccc(O)cc12` the Potency was inconclusive [inhibitor, single point].
With `Cc1cc(N2CCOCC2)nc(-c2ccccc2O)n1` the activity change, negative = growth inhibition was inconclusive: -31.6% [inhibitor].
For `COc1ccc(C(CCNC(C)c2ccccc2)c2ccc(F)cc2)cc1` (stereo not drawn), the Potency was active: 7.31 µM.
In the case of `COc1ccc(NC(=O)c2cccn2-c2nnc(N3CCCCC3)s2)cc1`, the Potency is reported as inconclusive [inhibitor, single point].
For `Nc1cnn(Cc2ccccc2F)c1`, the Potency was inconclusive [inhibitor, partial curve].
With `Cc1ccc(SCC(=O)Nc2ccc(-c3nc4ccccc4[nH]3)cc2)cc1` the Potency was inconclusive [inhibitor, single point].
With `CCN1C(N(C)CCc2cccs2)=N[C@@H](c2ccccc2)C(C(=O)OC)=C1C` the Potency was inconclusive [inhibitor, single point].
In the case of `O=C(Cc1ccc(F)cc1)NCCS(=O)(=O)N1CCN(c2cccc(Cl)c2)CC1`, the Potency is reported as inconclusive [inhibitor, single point].
In the case of `O=c1c2ccccc2c(-c2cccc(C(F)(F)F)c2)nn1-c1ccccc1`, the Potency is reported as inconclusive [inhibitor, partial curve].
In the case of `COc1ccc(NC(=O)C2Cc3c(-c4cccc(NC(C)=O)c4)ccnc3O2)cc1OC` (stereo not drawn), the Potency is reported as inconclusive [inhibitor, full curve, poor fit].
For `Cc1ccccc1C(=O)N(Cc1nc2ccccc2c(=O)[nH]1)C1CCCC1`, the Potency was inconclusive [inhibitor, single point].
With `COc1ccc(C(=O)NCCn2cc(SCC(=O)Nc3cc(C)on3)c3ccccc32)cc1OC` the Potency was inconclusive [inhibitor, single point].
For `Cc1cccc(NS(=O)(=O)c2ccc(C(=O)NCC(C)(C)N3CCOCC3)cc2)c1C`, the Potency was inconclusive [inhibitor, partial curve, poor fit].
For `CN(Cc1ccccc1)c1ccc(C=O)cc1`, the Potency was inconclusive [inhibitor, single point].

— PubChem BioAssay AID686979 (National Center for Advancing Translational Sciences (NCATS), 2013)
% is set by controls: 0 for no effect and ±100 for the full control effect; potency is the fitted concentration of half-maximal effect; tags give direction and shape of the fitted curve.
